How the values were obtained:
[1] = biological target: T1, human ROR1-Fc protein (Sino Biological, 13968-H02H1) (human, UniProt Q01973 part only); assay: DACE ELISA (ROR1-Fc coated, 4-1BB-His detection); 0 day in human serum at 37°C
T1 construct: Bought protein; also called human ROR1 protein (13968-H02H1, Fc tag)
Procedure: (§1) A 96-well microtiter plate (NUNC, 446612) was coated overnight at 4° C. with human ROR1-Fc protein (Sinobio, 13968-H02H1) at 100 ng/well in PBS. The plate was then incubated with 1% BSA buffer (1×PBS, 1% (v/v) BSA) at 200 μl/well at 37° C. for 2 hours to block non-specific binding. Thereafter, the blocking solution was discarded and fourfold dilutions of each bispecific antibody test material (starting from 100 nM) were added to the wells. The plate was incubated at 37° C. for 2 hours and then washed with PBS-T (1×PBS/0.05% (v/v) Tween-20). Subsequently, human 4-1BB-His protein (Sinobio, 10041-H08H) dissolved in 1% BSA buffer was added at 100 ng/well and incubated at 37° C. for 1 hour. After washing with PBS-T, the plate was incubated with anti-His HRP (Roche, Cat: 11965085001) at 37° C. for 1 hour. After washing, color development was performed with TMB (tetramethylbenzidine, Sigma, T0440) and the color development was stopped with 0.5M sulfuric acid (Samchun Chemicals, S1410), and the absorbance (OD) at 450-650 nm was read using a spectrophotometer. Four-parameter logistic curve analysis was performed using GraphPad software.

[2] = biological target: T1, human ROR1-Fc protein (Sino Biological, …); assay: DACE ELISA (ROR1-Fc coated, 4-1BB-His detection); 0 day in monkey serum at 37°C
Procedure: as §1

[3] = biological target: T1, human ROR1-Fc protein (Sino Biological, …); assay: DACE ELISA (ROR1-Fc coated, 4-1BB-His detection); 7 days in human serum at 37°C
Procedure: as §1

[4] = biological target: T1, human ROR1-Fc protein (Sino Biological, …); assay: DACE ELISA (ROR1-Fc coated, 4-1BB-His detection); 14 days in human serum at 37°C
Procedure: as §1

[5] = biological target: T1, human ROR1-Fc protein (Sino Biological, …); assay: DACE ELISA (ROR1-Fc coated, 4-1BB-His detection); 7 days in monkey serum at 37°C
Procedure: as §1

[6] = biological target: T2, human ROR1 on cells (NCI-N87, CHOK1-hROR1, AGS, CHO-huROR1-huB7-H3) (human, UniProt Q01973 30-937); assay: flow cytometry on ROR1-positive NCI-N87 cells, FITC-conjugated anti-human IgG (Fc specific)
T2 construct: whole, on cells; also called cell surface ROR1
Procedure: In particular, Jurkat cells overexpressing human 4-1BB (Promega) and NCI-N87 cells, a human ROR1 positive cell line (ATCC), were seeded into V-bottom 96-well plates (96 Well Plate-RV, Bioneer, 910D09) and washed with 200 μl/well of 1% BSA buffer. Fourfold dilutions of the test materials (bispecific antibodies) starting from 100 nM were added to each well and incubated for 1 hour at 4° C. The plates were then washed with 1% BSA buffer. To each well, FITC-conjugated anti-human IgG (Fc specific) (Sigma, F9512) dissolved in 1% BSA buffer was added and incubated for 1 hour at 4° C. The plates were washed again with 1% BSA buffer. The mean fluorescence intensity (MFI) of FITC was measured by flow cytometry. Four-parameter logistic curve analysis was performed on the obtained MFI values using GraphPad software.

[7] = biological target: T1, human ROR1-Fc protein (Sino Biological, …); assay: dual-antigen capture ELISA (DACE): plate coated with human ROR1-Fc, antibody titrated, then human 4-1BB-His and anti-His HRP, OD450
Procedure: Briefly, 96-well microtiter plates (NUNC, 446612) were coated overnight at 4° C. with human ROR1-Fc protein (Sinobio, 13968-H02H1) in PBS at 10 ng/well, then the plates were incubated with 1% BSA buffer (1×PBS, 1% (v/v) BSA) at 200 μl/well for 2 hours at 37° C. to prevent nonspecific binding. After blocking nonspecific binding, the wells were washed, and serial dilutions of the bispecific antibody test materials (starting at 100 nM) were added to each well. After incubation for 2 hours at 37° C., the plates were washed with PBS-T (1×PBS/0.05% (v/v) Tween-20). Then, human 4-1BB-His protein (Sinobio, 10041-H08H) dissolved in 1% (v/v) BSA was added to each well at 100 ng/well and incubated for 1 hour at 37° C. After washing the plates with PBS-T, anti-His HRP (Roche, Cat: 11965085001) was added and incubated for 1 hour at 37° C. After washing, color development was conducted TMB (tetramethylbenzidine, Sigma, T0440) and the reaction was stopped with 0.5M sulfuric acid (Samchun Chemicals, S1410), followed by reading absorbance (OD) at 450-650 nm in a spectrophotometer. Four-parameter logistic curve analysis was performed using GraphPad software.

EC50 [1]: 0.211 nM
EC50 [2]: 0.208 nM
EC50 [3]: 0.236 nM
EC50 [4]: 0.233 nM
EC50 [5]: 0.257 nM
EC50 (read off the curve) [6]: ~0.2 nM
EC50 (read off the curve) [7]: ~0.4 nM
B1: BA6M11(NA)x1A10M12 anti-ROR1/anti-4-1BB bispecific antibody (bispecific antibody, human IgG1, lambda)
heavy: EVQLLESGGGLVQPGGSLRLSCAASGFTFSNYDMSWVRQAPGKGLEWVSAIYHSGSSKYYADSVKGRFTISRDNSKNTLYLQMNSLRAEDTAVYYCARGGSGAWDTGFDYWGQGTLVTVSSASTKGPSVFPLAPSSKSTSGGTAALGCLVKDYFPEPVTVSWNSGALTSGVHTFPAVLQSSGLYSLSSVVTVPSSSLGTQTYICNVNHKPSNTKVDKKV[human IgG1 Fc with changes not shown]GSGSGSGSGSGSGSGSGSQSVLTQPPSASGTPGQRVTISCSGSSSNIGNNYVTWYQQLPGTAPKLLIYADSHRPSGVPDRFSGSKSGTSASLAISGLRSEDEADYYCATWDYSLSGYVFGCGTKLTVLGGGGSGGGGSGGGGSGGGGSEVQLLESGGGLVQPGGSLRLSCAASGFTFSSYDMSWVRQAPGKCLEWVSWISYSGGSIYYADSVKGRFTISRDNSKNTLYLQMNSLRAEDTAVYYCARDAQRNSMREFDYWGQGTLVTVSS
light: QSVLTQPPSASGTPGQRVTISCSGSSSNIGSNDVSWYQQLPGTAPKLLIYYENNRPSGVPDRFSGSKSGTSASLAISGLRSEDEADYYCGAWDDSLSGYVFGGGTKLTVLGQPKAAPSVTLFPPSSEELQANKATLVCLISDFYPGAVTVAWKADSSPVKAGVETTTPSKQSNNKYAASSYLSLTPEQWKSHRSYSCQVTHEGSTVEKTVAPAECS
notes: As BA6M11(WT)x1A10M12 but with the N297A (NA) mutation in the Fc; also called BA6M11(NA) × 1A10M12

— patent US20260015418A1 (ABL BIO, published 2026)
